Experimental findings from patent US20250051467A1 (JIANGSU HENGRUI PHARMACEUTICALS, published 2025) are described below.

Test [1] concerns the target T1, human CD40 on cells (Raji cells; HEK-Blue CD40L cells; human dendritic cells) (human, UniProt P25942 21-277). In words: cell-based or functional assay.
In test [2] the target is T2, human CD40 with C-terminal Flag tag on HEK293 cells (human, UniProt P25942 21-277).
T2 construct: whole, on cells; also called HEK293 cells highly expressing CD40; cell strain highly expressing human CD40
The test is described as follows: FACS, HEK293 cells transiently expressing human CD40. Here is the method: The ability of the humanized antibodies to bind to cells highly expressing the human antigen protein CD40 was measured by FACS. HEK293 cells were transiently transfected with CD40 plasmids (CD40 cDNA ORF Clone, Human, C-[…] (Flag®) Tag; Sino Biological; HG10774-CF), yielding HEK293 cells highly expressing CD40. The resulting cells were resuspended in the flow cytometry staining buffer ([…]), and the test antibodies that had been serially diluted to different concentrations were added. After 1 h of incubation on ice, the cells were washed with PBS and centrifuged at 400 g for 5 min. A goat anti-human Fc antibody labeled with the fluorescent group Alexa Fluor 647 was added as a secondary antibody, and the cells were stained in an ice bath for 1 h. After two washes with PBS, the fluorescent signals on the cell surface were detected by FACS. The humanized antibodies of the present disclosure all have relatively high affinities for the cell strain highly expressing CD40.
(In general: In flow cytometry, cells or beads pass a laser one at a time.)

Test [3] concerns the target T1, human CD40 on cells (Raji cells; …). The test is described as follows: cell-based or functional assay. This is another data set of the same source.
Test [4] has the same target. In words: FACS on Raji cells. As to the method: A FACS assay was used to measure the binding properties of anti-CD40 antibodies on cells. The assay comprises the following steps: Raji single cells were obtained and plated. The test antibodies were added at 100 μL/well. The highest concentration point was 100 nM. A 5-fold dilution was performed, yielding 8 concentration points in total. The plate was incubated at 4° C. for 1 h. Anti-hIgG Alexa Fluor-647 was added as a secondary antibody in the ratio of 1:500. The plate was incubated at 4° C. for 30 min. A FACS assay was performed. A CD40 agonist was used as a positive control.

As usually defined, the EC50 is the concentration at which the effect is half-maximal. The low end stands for higher potency in that assay, the high end for lower potency in that assay.

B1: A297-Fc (Fc fusion)
chain: QVQLVESGGGMVEPGGSLRLSCAASGFTFSRYGMKWVRQAPGKGPEWVSTINSHGDTTYYADSVKGRFTISRDNAQNTVYLQMNSLKPEDTALYYCLRIDYSDYSSRGQGTQVTVSS[gap - human IgG1 Fc with changes]
notes: also called Ab297
For the molecule B1, in test [1], the “Maximum response (percentage relative to 200 nM 9E5-SELFNS), HEK-Blue CD40L reporter cells” value was 84.2% and the “agonist activity EC50, HEK-Blue CD40L reporter cells (SEAP)” value came out at 556 pM. In test [2], the EC50 is 1120 pM and the “Emax MFI” value was 16700 MFI. Further, in test [3], the “FcγRIIb-mediated activation of HEK-Blue CD40L cells, EC50” value is 243 pM and the “FcγRIIb-mediated activation of HEK-Blue CD40L cells, Emax (relative fluorescence intensity)” value is 17.3 relative fluorescence intensity. The EC50 in test [4] is 529 pM.

B2: A12-Fc (Fc fusion)
chain: EVQVVESGGGLAQPGGSLRLSCAASGFTFSNYGMKWVRQAPGKGPEWVSTILSQGGSTYYADSVKGRFTISRDNAKNTLYLQMNSLKPEDTALYYCLRVDWSDYSPRGQGTQVTVSA[gap - human IgG1 Fc with changes]
notes: also called Ab12
Turning to B2, in test [1], the “Maximum response (percentage relative to 200 nM 9E5-SELFNS), HEK-Blue CD40L reporter cells” value turned out to be 51.8% and the “agonist activity EC50, HEK-Blue CD40L reporter cells (SEAP)” value was 231 pM. In test [2], the concentration giving a half-maximal response (EC50) came to 1090 pM and the “Emax MFI” value was 17300 MFI. The “FcγRIIb-mediated activation of HEK-Blue CD40L cells, Emax (relative fluorescence intensity)” value in test [3] is 9.68 relative fluorescence intensity. For the same molecule, in test [4], the response was half-maximal at 366 pM (EC50).
